# Results: the RNAGym collection of RNA variant scans (doi:10.7554/elife.90254)
# The source gives no read counts; variants with many changes may rest on few reads.
# B1: OR4K15 (parent)
# chain: GUUAACGGUCAUAGGCCAUGGAAACUAGGAGCACCAUUUCGCUGCCAGUGAAGAAAUGAACAAAGAAAAUCUGGGCCAGGCAGGCAUCAAAAGAAAUAGUCUUGCGCUCAACCAGAAAGUCUGUAAUCAUUUUAAGGGUA
# Variants of: B1
# Experiment: self-cleavage, relative activity (ratio to wild type); higher = more cleavage; in vitro, sequencing; the parent is a self-cleaving ribozyme
row,Variant,self-cleavage
1,U37C G48A A69U A95G A135U,0.86
2,C10A U43A A56G,0.48
3,U19C G41U A56G A114G A117U,0.32
4,A24U A51U A86G U127C,0.88
5,A5G U38A A52G A68G U87A,0.62
6,U49C A67G A125G A126G U132A,0.17
7,A54G A62U U100C,2.16
8,A64G U132A U139C,2
9,U87A A116G G137A,1.13
10,A33G A63G A78G,0.13
11,A96G U102A U103C,0.18
12,A23G U39C U43G A51G U108A,0.04
13,A23G A36U U72C A126U,0.52
14,A5G A23G A110U A111G,0.05
15,G31A U37C A68G A89G,1.27
16,A18U U43A A116G,0.46
17,A56G G75A U97C,0.15
18,U2C U9C U49C G136A,1.1
19,A33U A36G U87A A90G A96G,1.76
20,A11G U39C U139A,1.36
21,U9A A94G A140U,1
22,A22U U57C A89G,0.96
23,U9A A92G A111U U124C,0.03
24,U37C A92U A95G,1.99

row,Variant,self-cleavage
1,A54G A82U A134G,0.22
2,U39A A52G A64G A94G A116U U122A,0.48
3,A47G A63G A89U U122C A134G,1.07
4,U3C A11G A129G,1.39
5,A33G A36G A56G A78U A86G U102C,0.53
6,U39A G50A U100C U122C,2.03
7,U43A A78U U120C,0.21
8,U2C A47U A90G,0.52
9,A59U A90G A114C U127C,0.03
10,A11U U26C U108C,0.01
11,A52G A68G A134G,1.24
12,A51U U122C U127C,0.78
13,A22G A63G A111U,0.14
14,U43G G65A A94G,2.03
15,A33G A36U A51U,1.21
16,U43C A54G U108A,0.03
17,G14A A95G A111G,0.01
18,A4U A60G A86G,1.32
19,A60U U102A C105U,0.11
20,U19C C34U U38C A60G G74A,0.33
21,A18U A52G A60G U72C G80C,0.02
22,G7A U49A A125U U131C,1.56
23,G84C A95G U120C U122C,0.34
24,U2C A64G A67U A82G U102C A111G,0

row,Variant,self-cleavage
1,A47C A78G A92G U120C U131G,0.05
2,U3C U37C A96U,1.27
3,A33U A67G A117G,2.67
4,U12C A23G A24G A118G,0.24
5,G20A A96G U103C U122G,0.61
6,U9A A33G U39A,0.94
7,G41A A59G A66G U100C,1.58
8,U26C U87C C112U,0
9,U26C C40U A91G,0.79
10,U12C A18G U49C A59U A86G A114G,0.15
11,A47G A51U A56G U57C A60G A63G,1.19
12,A23G A56G A89G A96G,0.3
13,U39C A117G A135U,2.04
14,U12C U87C A118G,0.57
15,U9C A96G U100C,2.82
16,A11G A33G U49C A52G,0.64
17,A11G U12C U37C U57C A118G U130C U132C,0.35
18,C10U A36U A52G A56G A94G U127A,1.23
19,A24G A95U A111G,0.01
20,A63G A67G A69G A90G A96G U132C,0.57
21,A13G U43G A52U A66G A114G,1.39
22,A36G A64G A82U U130C,0.11
23,U103C U108C A140U,0
24,A51U A89G A126G,1.04

row,Variant,self-cleavage
1,A22U U57A A64G,1.84
2,U39C U49A U70C,1.33
3,U19C A23G A30G A52C A68G,0.87
4,A98G U122A G137U U139A,0.35
5,U9C A13G A47C A86G A92U A94U,1.29
6,U12C A111U A125G,0.03
7,A13G A22G A111G,0.19
8,U12G A30G U39C A51G U102A U103C A126G,0.07
9,A22U C45A U49A A59G,1.32
10,A18G A30G A98G U120C,0.46
11,A18G A52G A69U U72C A117G A135U,0.51
12,A5G A13G A54G U100C,1.02
13,A18G A62G A63G G119A U139C,1.76
14,U38C C76U A86G G137U,0.08
15,G58U A95G C101U U120C,0.26
16,C40U U100C U108C,0
17,A18G A24G A51G A134G,0.89
18,A51G A59G A78G,0.27
19,A24G A52G A94U U132C,1.41
20,A27U U43A A117G,1.97
21,U2C A4G A23G A52C A54G A82G U120G A126G,0.27
22,A23G A55G A68G,2.14
23,U9A A22G A117G,1.66
24,A36U U43A A135G,1.93

row,Variant,self-cleavage
1,A11G U108C C109U A110G,0.01
2,C35U A54G A60G,0.4
3,A60U A69G A82C A111G,0.02
4,U43A A56G G137U,2.92
5,U9C U49C A126G,0.71
6,U9C A24G A36G A68G A86G U131C,0.53
7,A13U U37C U57C A92G U122C U130C,1.02
8,A64G A69G U103C A114G,0.16
9,A18U A52G U130C U139C,0.29
10,U2A A11G A54G A114G,0.74
11,A36G U43C U49C U100C,1.71
12,U2C A4G A56G U57A U120A,0.57
13,A52G A54G A78G A89G A94G U120C,0.09
14,A82U A86G A110G U127C,0.01
15,U9C A59G A95G A110G U124C,0.28
16,G7A A18G A22G C88A,0.12
17,A30G C32A U57C U122A,1.13
18,U9C A60G A114U,0
19,A90G A111C U139C,0.01
20,A56G A95C A117G,1.45
21,U3C U19A A63G A118G,1.04
22,A91U A111G U131C,0.01
23,U87C A89U A92G A110G,0.1
24,A54G A59U A67G A91G,0.87

row,Variant,self-cleavage
1,A5G A67G U97C U127C,0.05
2,U39A U122C U139C,0.49
3,U2C A51G A56G A116G,0.63
4,U12C U43C A54G,1.58
5,A59G G65A C121A,2.42
6,A56G A64G A86U A94U A96G U100C A114U,0.16
7,G41A A55G C77U,1.17
8,U43C A78U G106U U139C,0.01
9,U9C U26C U38C,1.6
10,U12A U70C U127C U131C,0.64
11,C88U A94G U127A U130C,0.5
12,G14U U43C A86G,1.17
13,A5G U19A U57C,0.97
14,U49A A95U A96G,0.72
15,A24G A94G U130C,1.46
16,A11G A36G U39C A89G,0.91
17,A11G A89U A126G,1.85
18,U9C U43C A114U A129G,0.05
19,A22G U37C A54G,1.35
20,A86U A95G U130A,2.2
21,A54G A95G U108C U130C,0.01
22,A11G A52G C105G,0.02
23,A23G A33G U38C A117U,0.81
24,A5G U72C A116G,0.05

row,Variant,self-cleavage
1,U49A A63G A67G U72C,0.15
2,A82U U133C A140G,0.24
3,A51G G58A A129G,1.24
4,A23G A36C U131C,0.22
5,A22U A36G U57C U87A,0.76
6,A11G A67U U120C,1.33
7,U38C A54G A66U A126G,1.21
8,U9C G20U A92G,1.53
9,A13U A23G U103C,1.24
10,A11G A51G A63U U102C,1.38
11,G7A U26C U38C A62G A66G A68G,0.35
12,A5G A30G U43C A95G A96G U103C U127C,0.73
13,U102C U131C U139A,0.94
14,A5G G29A U39C A47G U49C,1.06
15,U43G A52G G75U A96U,0.13
16,A55G A78G A135G,0.25
17,U70A A91G A110U A126G U127C U133C,0.15
18,U9C A78G A86G A129G U131C,0.06
19,A33G U37C A118U,0.28
20,A62G U72C A91G,0.09
21,C61U A82U A89G U100C A140G,0.24
22,U12A A96U U127A,1.17
23,C32U A62C A117G A140U,1.58
